Source: article PMC12136788
Some of the results follow.

B1: chr7:51716546:51716547:+_ENSMUSG00000047085_ENSMUST00000058667|mus_mus|FALSE|FALSE (ssRNA)
RNA: GGGAGUUCUACAGUCCGACGAUCUGGGAUGCUUUCGAUGGGGUUGUUGCGCAGCCACAGCUCCCGGAGCUUGGACAGGUACUCAAAGGCCUGCGUGGGCACGGUUGUCAGCCGGUUGUCGAAGAGUUCCAGUGUGUUGAGACUCAACAGAGGAUUGAGCAUCA
B2: chr5:92873050:92873051:-_ENSMUSG00000029426_ENSMUST00000031377|mus_mus|motif|central (ssRNA)
RNA: GGGAGUUCUACAGUCCGACGAUCUCCCAGGGCCCAACCACAAAAAGUUUCUACACAAGUUUAUUAAAUACUUCCGGGACACAUGAACACAGUUUUAGAGACACGAUUUUAUAAAGCAGAAUUGCCAGCCAUGUCACCCUGCUCCAACAGAGGAUUGAGCAUCA
B3: chr2:181367561:181367562:+_ENSMUSG00000002455_ENSMUST00000002529|mus_hu|FALSE|FALSE (ssRNA)
RNA: GGGAGUUCUACAGUCCGACGAUCAACCCGCUUCUUUGCACGAAUGUCCGUUUCCAGCUCUGCGGCUCUGAUGUAAAUCCUGACAGACUGUGGGAGAUGACGGACAGCUUGGGCUACCACGGCCUUGGCUGUGUCCCCAGGCUGCAACAGAGGAUUGAGCAUCA
B4: 77158072_77191296_765_3pUTR_ENSG00000186908_ENST00000426126|human|control|control (ssRNA)
RNA: GGGAGUUCUACAGUCCGACGAUCCAUGUGCUGUAAUCAUCAAUAUGAGUUUUCCGUCCAAGAGGUUCACCAUAUCCAUGGUUAUAAUGGCUUUGGGGUUUGAUUUCCUCUGGGUGGAGAAGGGGCACACAGCCCGCUUCGGUACAACAGAGGAUUGAGCAUCA
B5: chr7:141438946:141438947:+_ENSG00000106028_ENST00000265304|hu_mus|hu_hu_hu_mus_True|18_58 (ssRNA)
RNA: GGGAGUUCUACAGUCCGACGAUCGACGAAAUACCUGUAACACAGGUCUUCGAAACAUGGCUUCUGUUUUUCUUACAGUCUAAUCUUUAGGCUUUUCCUAAAGGAAAGAAAGAAAAGGCCCAGCCACUAAAUCAAGAAACUACACAACAGAGGAUUGAGCAUCA
B6: chr7:54823571:54823572:-_ENSG00000132432_ENST00000352861|hu_mus|hu_hu_hu_mus_False|8_8 (ssRNA)
RNA: GGGAGUUCUACAGUCCGACGAUCUCCCAUGAUAGCAAAUCCUAUAGCUGUAGCCAUGGCAAUCUUCUGGAAUUCUUUUCUGUCGGGUUUGGUGCAUCUUUUAACCAGCCGAAUUGAGUCCUUUACAAACUGCCGACUGGGCUCCAACAGAGGAUUGAGCAUCA
B7: chr13:13598695:13598696:+_ENSMUSG00000005397_ENSMUST00000005532|mus_mus|FALSE|FALSE (ssRNA)
RNA: GGGAGUUCUACAGUCCGACGAUCCACCAAACCCGUGUCAAACAGCACUCGGCGCUGGGUGCCAUCCAUCUUUGCAACUUCUAUUCGAUCCAACUGAGAGUCCGUCCAGAAGAUGGUUCGACCAAGAUGGUCAAGGGCAAUGCCCAACAGAGGAUUGAGCAUCA
B8: chr5:134670393:134670394:-_ENSG00000113648_ENST00000304332|hu_hu|FALSE|FALSE (ssRNA)
RNA: GGGAGUUCUACAGUCCGACGAUCUAAAAGACGCUGUUCUCCCCACUGCUGUGCGUCAAUCAGGGUUUCAUUAAAAUAAAACUAUAAAAUCUCCUAGGUUACACUAAGUCAGACACGGUCUGGAACACAGUGCUUAACAACAGUCAACAGAGGAUUGAGCAUCA
B9: chr11:72491332:72491333:+_ENSMUSG00000020794_ENSMUST00000021148|perfect_dup|motif|central (ssRNA)
RNA: GGGAGUUCUACAGUCCGACGAUCAGCAUCAACAUUAGCAGGUGAGUCUCCAUUAGGGUCUGCCAGCAUAGAAAUGACACGGAUCAUGAUGGUUUCCACAGUGUGGAUAGGGAGCCAGCGUUCCUCUGGCUUUUCAUAACCAUACAACAGAGGAUUGAGCAUCA
B10: chrM:11124:11125:+_ENSG00000198886_ENST00000361381|hu_hu|FALSE|FALSE (ssRNA)
RNA: GGGAGUUCUACAGUCCGACGAUCUCUGGCUGGUUGCCUCAUCGGGUGAUGAUAGCCAAGGUGGGGAUAAGUGUGGUUUCGAAGAAGAUAUAAAAUAUGAUUAGUUCUGUGGCUGUGAAUGUUAUAAUUAAGGAGAUUUGUAGGCAACAGAGGAUUGAGCAUCA
B11: chr1:39494447:39494448:+_ENSG00000168653_ENST00000372967|hu_mus|hu_hu_hu_mus_False|88_88 (ssRNA)
RNA: GGGAGUUCUACAGUCCGACGAUCGCACCGAGCGGCGUUCUUAUAGGGCUGUUCACCGCUUAGGAACAUAAAGUGCCGGUCCAGGCUGAUGCCCAGCUUUUUCUGUAUGUCAAGGAAAGGCAUGGCUCUGCAGUGCCCUUGUCACAACAGAGGAUUGAGCAUCA
B12: 122143246_122143366_4319_3pUTR_ENSG00000114030_ENST00000344337|human|control|control (ssRNA)
RNA: GGGAGUUCUACAGUCCGACGAUCCAAGUUCCAACAUAUCUGAGUUAUGCUACUUCACUUUUAGCCAAUUCCAACUUUGAUACUUUAAGAAAAAAUCAUUUUAUUGUUAAAAAAGAAAAAAAAACUUAGAUCUUAUAGUUCAUGCAACAGAGGAUUGAGCAUCA
B13: chr11:87044496:87044497:-_ENSMUSG00000046442_ENSMUST00000055438|mus_mus|FALSE|FALSE (ssRNA)
RNA: GGGAGUUCUACAGUCCGACGAUCGCAUGGAAUAUCAUUACGCUUUCUGAUCUUCACAUUUCCACUAUAUCCUUCCCAACUAUUUUCCCUCCAUGGCAAAGAACUUCUUAACAUCUUGUUUCUCUUCCCACUUCGAGUAAGUGACAACAGAGGAUUGAGCAUCA
B14: chr16:2011185:2011186:+_ENSG00000140990_ENST00000268668|hu_mus|FALSE|FALSE (ssRNA)
RNA: GGGAGUUCUACAGUCCGACGAUCCACUCGACGGUACUGUCGGUGGUAGUAGUAGGUUCGGUUCUUGGCAUGCUGUCGUUCAAUAAACUCUCUCACGAGGGUCACGGGCCAGUCCACGACGAGGUCGUAGGCCUUCGUCAAGUACAACAGAGGAUUGAGCAUCA
B15: chr6:31620082:31620083:-_ENSG00000204463_ENST00000375976|hu_hu|FALSE|FALSE (ssRNA)
RNA: GGGAGUUCUACAGUCCGACGAUCCUAGCUGACUGCCCGCGUCUACUGCCUUCCCACGGUGUUCCAGCAGAACGGCACAACUAACCCACAGCCAAACACACACACACACACACACACACACACACACACACACACCCACCACCCCAACAGAGGAUUGAGCAUCA
B16: chr4:71802285:71802286:-_ENSMUSG00000008305_ENSMUST00000030095|mus_hu|FALSE|FALSE (ssRNA)
RNA: GGGAGUUCUACAGUCCGACGAUCUGCCGAGGAGGCCGUGGAAGCUGGACUGCUAGAAGCAUCCUUCUUUAGCAGGCGAUUUUUGUCGAUUCCAUUUUCCCGGGGCGAGUGGGCAGGGCUUGCUCGCGGAGAAGAAGGGUCCUCCAACAGAGGAUUGAGCAUCA
B17: chr2:230636304:230636305:-_ENSG00000153827_ENST00000389045|hu_mus|FALSE|FALSE (ssRNA)
RNA: GGGAGUUCUACAGUCCGACGAUCGUACUGAAGAUGGCAGAGCGGGAAGACCGAUUCAAAUCCAUCUCUGAAUGAGUCAAACUGUCGACAAACACCUUCAUUUAGUGCCCAGAAUAUCACCAAUCUCAGGUACUCUUCCAAAUUCAACAGAGGAUUGAGCAUCA
B18: chr9:108846149:108846150:+_ENSMUSG00000025651_ENSMUST00000026743|mus_mus|motif|central (ssRNA)
RNA: GGGAGUUCUACAGUCCGACGAUCGUGCUCUCGAGUGCUGUAGGCAUUAAGAUGAGCCCCAAUACUCUCUACCUCCUUCUCGGAGGCAUUGCCAGGCCGAUUCUUUGUUCCCUUGAAAGCCAGAUGUUCCAAAAAGUAGCCUGCCAACAGAGGAUUGAGCAUCA
B19: chr1:220276048:220276049:+_ENSG00000067704_ENST00000302637|hu_hu|hu_hu_hu_mus_True|28_108 (ssRNA)
RNA: GGGAGUUCUACAGUCCGACGAUCGCAAACAGCUUCAUUGGCGGGAAUUGUCCAAGGCUGGGUGGUCCAAACUAAAACGCUAACAGGGGAUGAGGCAUCUGUAAGAGAUGCCAAUUUCGGAGGAGGUCUCAGGAGGGGGAAUCUCAACAGAGGAUUGAGCAUCA
B20: chr11:87793471:87793472:-_ENSMUSG00000020483_ENSMUST00000020775|mus_mus|mus_mus_mus_hu_False|38_108 (ssRNA)
RNA: GGGAGUUCUACAGUCCGACGAUCUGGGGGCUGGGGAAAAAGAAUAAGCUGGAUCCCCCACCCCCCCACAUUGUCAACCCUACACGAGAGUUUUGAAUGAUUCAUAAGAAAAUCAGCAGCUCAAACGGCAAUGACCACCCCACCCAACAGAGGAUUGAGCAUCA
B21: chr4:57314706:57314707:+_ENSG00000128050_ENST00000264221|hu_mus|hu_hu_hu_mus_True|1_38 (ssRNA)
RNA: GGGAGUUCUACAGUCCGACGAUCCAGAAUUUCAAAAAUAGCUUGUGUGGCAUGACUCAUGAUGUCCACUUCAGUCUGCCCUAUAACAAGGCCAGCAAAGCAAAAUUUUGCAGCAAUGAGUUGCUCCUCAGACCACUGUGGGUCCAACAGAGGAUUGAGCAUCA
B22: chr2:160604994:160604995:+_ENSG00000136536_ENST00000409591|hu_hu|motif|central (ssRNA)
RNA: GGGAGUUCUACAGUCCGACGAUCCCUUGAAGAUUCAUCUCUUCCCUCUCGCCUCCUUCUAGAGAACAAAGGUGUGCAUCGGUUUCGGAGUGAGGAAGAUAACCAUGGUCCUGUAUUUCUACCUUCAGAUUCUUGGUUAAAAUUCAACAGAGGAUUGAGCAUCA

target: T1, UNK ZnF1-3 (human, UniProt Q9C0B0 31-174); test: nsRBNS (natural sequence RNA bind-n-seq); RBNS binding buffer (assumed for nsRBNS): 25 mM Tris pH 7.5, 150 mM KCl, 3 mM MgCl2, 0.01% Triton X-100, 500 ug/ml BSA, 20 U/ml SUPERase-In, 4 C; UNK is unkempt and MSI1 is Musashi-1; names of the RNAs are library labels; protein concentration not given here; high values mean tight binding
T1 sequence: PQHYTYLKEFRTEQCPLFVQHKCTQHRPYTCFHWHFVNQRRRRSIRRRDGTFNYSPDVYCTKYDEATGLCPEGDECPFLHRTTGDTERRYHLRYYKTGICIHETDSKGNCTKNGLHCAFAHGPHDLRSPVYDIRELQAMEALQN

Binder | binding signal [enrichment R]
B1 | 0.613
B2 | 2.18
B3 | 0.681
B4 | 0.938
B5 | 0.4
B6 | 0.757
B7 | 1.06
B8 | 1.23
B9 | 1.16
B10 | 2.63
B11 | 0.841
B12 | 0.767
B13 | 0.619
B14 | 0.67
B15 | 1.47
B16 | 0.779
B17 | 1.02
B18 | 0.76
B19 | 2.68
B20 | 1.42
B21 | 0.781
B22 | 1.2
